Test in all cases: mRNA display binding score; higher = more enriched on the antigen
The target of assay [1] is Influenza A H1N1 A/Michigan/45/2015 hemagglutinin ectodomain. On the procedure:
(§1)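 A pool of natively paired antibodies, displayed as scFv on mRNA, was selected once on antigen-coated beads and sequenced before and after; two replicates.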

For assay [2], the target named is Influenza A H1N1 A/Solomon Islands/3/2006 hemagglutinin ectodomain. The procedure: as §1
Assay [3] deals with Influenza A H3N2 A/Singapore/INFIMH-16-0019/2016 hemagglutinin ectodomain. The conditions noted are these: antigen blocked with: nothing. On the procedure: as §1
The target in assay [4] is Influenza A H5N1 A/Qinghai/1A/2005 hemagglutinin ectodomain. On the procedure: as §1
Assay [5] deals with Influenza A H7N9 A/Shanghai/2/2013 hemagglutinin ectodomain. The procedure: as §1
Assay [6] concerns the target Influenza B/Lee/1940 hemagglutinin ectodomain. The procedure:
as §1

Assay [7] addresses Influenza B/Phuket/3073/2013 hemagglutinin ectodomain. The procedure:
as §1

Setting [8] is: antigen blocked with: 2 µM CR9114 IgG.

The other results are listed elsewhere or left out. Binding of human antibodies (heavy:light variable regions, tested as scFv in one mRNA-display pool) to influenza hemagglutinin, with or without the stem antibody CR9114 bound first. Score = (mean enrichment − median) / interquartile range of that screen; higher = more enriched, 0 = typical non-binder. Active = above the paper's cut-off per screen: stems 28; unblocked H1 Solomon Islands 5, H1 Michigan 3, H3 5, H5 19, H7 2.85, both B 5; blocked 9, 7, H5 10, H7 10, B Phuket 10, B Lee 11.5. Scores are scaled within each screen and are no affinities; replicates correlate at about 0.6 to 0.9, and antibodies rare in the pool are noisier.

B1: antibody 3E02 (protein)
chain 1: VQLVESGGGVVQPGRSLRLSCATSGFIFSRYAIHWVRQAPGKGLEWVAVISNDGTKEECADSVKGRFTISRDNSKSTLYLQMNSLRAEDTAVYYCARDATQYGYETNWFFDSWGRGLLVTVSS
chain 2: SYELTQPASVSVSPGQTANITCSGDKLGDKYTSWYQQKPGQAPVLVIYQDTKRPSGIPERFFGSSSGDAATLTISGTQAMDEADYYCQAWVWDSRVVFGGGTKLTVL
As for B1, the “mRNA display binding score” value in assay [1] (setting [8]) is inactive: 0.231; in assay [1] (antigen blocked with: nothing) it was inactive: 0.0448; in assay [2] (setting [8]) it was inactive: 0.0907; in assay [2] (antigen blocked with: nothing) it was inactive: 0.582; in assay [3] it was inactive: -0.151; in assay [4] (setting [8]) it was inactive: 0.00908. Besides, the “mRNA display binding score” value in assay [4] (antigen blocked with: nothing) was inactive: 0.0151; in assay [5] (setting [8]), inactive: -0.0101; in assay [5] (antigen blocked with: nothing), inactive: 0.409; in assay [6] (setting [8]), inactive: 10.2; in assay [6] (antigen blocked with: nothing) it was active: 27.5; in assay [7] (setting [8]) it was inactive: 0.0213. For the same molecule, the “mRNA display binding score” value in assay [7] (antigen blocked with: nothing) is inactive: -0.0738.

B2: C2-3-G03 (protein)
chain 1: VQLVESGGRLVQPGGSLRLSCAASGFIFSNYWMHWVRQAPGKGLVWVSRINSDGSSIVYADSVKGRFTVSRDNAKNTLYLQMNSLRAEDTAVYYCAREPYHPPQFDYWGQGTLVTVSS
chain 2: DIQMTQSPSSLSASVGDRVTITCRASQGIDTYLNWYRQQPGRPPKLLIYSAANLPSGVPSRFSGSGSGADFTLTISGLQPEDFATFYCQQSYRSPPTFGGGTKVEIK
For the molecule B2, the “mRNA display binding score” value was inactive: 1.51 in assay [1] (setting [8]); inactive: -0.511 in assay [1] (antigen blocked with: nothing); active: 172 in assay [2] (setting [8]); active: 118 in assay [2] (antigen blocked with: nothing); inactive: 0.0343 in assay [3]; inactive: 1.14 in assay [4] (setting [8]). Further, the “mRNA display binding score” value in assay [4] (antigen blocked with: nothing) is inactive: 0.0218; in assay [5] (setting [8]), inactive: 1.02; in assay [5] (antigen blocked with: nothing), inactive: -0.582; in assay [6] (setting [8]) it was inactive: -0.031; in assay [6] (antigen blocked with: nothing), inactive: 0.193; in assay [7] (setting [8]), inactive: 2.79. Further, the “mRNA display binding score” value in assay [7] (antigen blocked with: nothing) was inactive: 0.913.

B3: W85-2C10 (protein)
chain 1: EVQLVESGGGVVQPGRSLRLSCAASGSTFSDRAMHWVRQAPGRGMEWIGFILFHGTNNYHADSVKGRFTISRDNSKNTLYLQMNSLRTEDTAMYYCARDRGAAVVDLTAEAFDLWGQGTMVTVSS
chain 2: DIQMTQSPSSLSASVGDRVTITCRASQGIRNWLAWYQQKPGKAPRSLIYAASTLQSGVPSRFIGSGSGTDFTLTIRGLQPEDFATYFCQQYDSYPLTFGGGTKVEI
With B3, the “mRNA display binding score” value is inactive: 1.46 in assay [1] (setting [8]); inactive: 0.974 in assay [1] (antigen blocked with: nothing); inactive: 1.36 in assay [2] (setting [8]); inactive: 0.123 in assay [2] (antigen blocked with: nothing); inactive: 1.3 in assay [3]; inactive: 0.249 in assay [4] (setting [8]). Also, the “mRNA display binding score” value in assay [4] (antigen blocked with: nothing) is inactive: 1.35; in assay [5] (setting [8]), inactive: 0.638; in assay [5] (antigen blocked with: nothing) it was inactive: 0.943; in assay [6] (setting [8]), active: 48.1; in assay [6] (antigen blocked with: nothing) it was active: 172; in assay [7] (setting [8]), inactive: 0.929. In assay [7] (antigen blocked with: nothing), the “mRNA display binding score” value is inactive: -0.027.

B4: W85-1H07 (protein)
chain 1: EVQLVESGGGLVKPGGSLRLSCAASGFHFSGYSMNWVRQAPGKGLEWVASISGSVSDIHYADSVKGRFTISRDNARNSLYLQMTSLRAEDTALYYCVRDSYNWNDREFDPWGQGTLVTVSS
chain 2: DIQMTQSPSSLSASVGDRVTFSCRASQSISIYLNWYQQKPGKAPKLLIYAASSLQTGVPSRFSGSGSGTDFTLSISSLQLEDFATYYCQQSYTTPPTFGQGTKVEVK
Take B4: the “mRNA display binding score” value was inactive: 0.357 in assay [1] (setting [8]); inactive: 0.335 in assay [1] (antigen blocked with: nothing); inactive: 1.38 in assay [2] (setting [8]); inactive: 0.107 in assay [2] (antigen blocked with: nothing); inactive: 0.74 in assay [3]; inactive: -0.159 in assay [4] (setting [8]). Also, the “mRNA display binding score” value in assay [4] (antigen blocked with: nothing) is inactive: 0.426; in assay [5] (setting [8]), inactive: 0.518; in assay [5] (antigen blocked with: nothing), inactive: 0.868; in assay [6] (setting [8]), inactive: 7.86; in assay [6] (antigen blocked with: nothing), active: 46.3; in assay [7] (setting [8]), inactive: 0.221. In addition, the “mRNA display binding score” value in assay [7] (antigen blocked with: nothing) was inactive: -0.0266.

B5: antibody 3D04 (protein)
chain 1: EVQLVESGGGVVQPGRSLRLSCAPSGFTFDIYAMQWVRQAPGKGLEWVAFVSYDGSIKNYADSVKGRFTISRDKYLEMNSLRPEDTAVYFCARGRVAYCTTDCYHAFDIWGQGTMVTVSS
chain 2: SYELTQPHSVSVAPGQTATITCGGDYIERKSVHWYQQKPGQAPVLVVYDDSDRPSGIPERLSGSNSGNTATLTISRVEGGDEADYYCQVWDSSCDCWVFGGGTKVTVL
As to B5, the “mRNA display binding score” value in assay [1] (setting [8]) is inactive: 0.678; in assay [1] (antigen blocked with: nothing), inactive: -0.133; in assay [2] (setting [8]), inactive: 0.511; in assay [2] (antigen blocked with: nothing), inactive: -0.121; in assay [3], inactive: -0.275; in assay [4] (setting [8]), inactive: 3.57. For the same molecule, the “mRNA display binding score” value in assay [4] (antigen blocked with: nothing) was inactive: 14.4; in assay [5] (setting [8]), inactive: 0.272; in assay [5] (antigen blocked with: nothing), inactive: 0.0994; in assay [6] (setting [8]), inactive: 1.9; in assay [6] (antigen blocked with: nothing) it was active: 55.5; in assay [7] (setting [8]), active: 19.5. Besides, the “mRNA display binding score” value in assay [7] (antigen blocked with: nothing) was active: 26.6.

B6: R95-1D06 (protein)
chain 1: EVQLVESGGGLVKPGGSLRLSCAASGFTFRSYTMNWVRQAPGKGLEWVSSISTTLSFIYYADSVKGRFTISRDNAKNSLYLQMNSLRAEDTAVYYCARDLNSYGTVDYWGQGTLVTVSS
chain 2: SYELTQPPSVSVAPGQTARIPCGGNNIGSRPVNWYQQKPGQAPVLVVYDDNDRPSGIPERFSGSNSGNTATLTISRVEAADEADFYCQVWDSSRDQSVLGGGTKLTVL
As to B6, the “mRNA display binding score” value is inactive: -0.145 in assay [1] (setting [8]); inactive: -0.0835 in assay [1] (antigen blocked with: nothing); inactive: -0.189 in assay [2] (setting [8]); inactive: -0.125 in assay [2] (antigen blocked with: nothing); inactive: 0.0455 in assay [3]; inactive: -0.505 in assay [4] (setting [8]). Also, the “mRNA display binding score” value in assay [4] (antigen blocked with: nothing) was inactive: -0.0214; in assay [5] (setting [8]), inactive: -0.783; in assay [5] (antigen blocked with: nothing) it was inactive: -0.0111; in assay [6] (setting [8]), inactive: 0.416; in assay [6] (antigen blocked with: nothing), inactive: 3.63; in assay [7] (setting [8]), inactive: 1.51. Moreover, the “mRNA display binding score” value in assay [7] (antigen blocked with: nothing) is active: 9.72.

B7: R95-1A04 (protein)
chain 1: LVQLQESGPGLVKPSETLSLTCTVSGYSINTGYYWGWIRQPPGKGLQWIGSIYYSGRTHYNPSLRSRVTIFLDTSKNQFSLKLRSVTAADTAVYYCARWWSSSGGSNWFDPWGQGTLVTVSS
chain 2: SYELTQPPSVSVAPGQTARITCGGDNIESKSVHWYQQKPGQAPALVVYDDSDRPSGIPERYSGSNSGNTATLTISRVEAGDEADYYCQVWDGSGDQALVLFGGGTKLTVL
With B7, the “mRNA display binding score” value is inactive: -0.276 in assay [1] (setting [8]); inactive: 0.17 in assay [1] (antigen blocked with: nothing); inactive: 0.597 in assay [2] (setting [8]); inactive: 0.241 in assay [2] (antigen blocked with: nothing); inactive: -0.394 in assay [3]; inactive: -0.159 in assay [4] (setting [8]). Also, the “mRNA display binding score” value is inactive: 4.55 in assay [4] (antigen blocked with: nothing); inactive: -1.11 in assay [5] (setting [8]); inactive: 0.213 in assay [5] (antigen blocked with: nothing); inactive: 1.21 in assay [6] (setting [8]); active: 41.4 in assay [6] (antigen blocked with: nothing); inactive: 2 in assay [7] (setting [8]). Also, the “mRNA display binding score” value in assay [7] (antigen blocked with: nothing) was active: 17.4.
